According to the supplement of paper PMC7826260:
This is one part of the list. Each Rep nickase domain was tested in vitro on the same pool of single strands (1 h at 37 °C, 3 µM enzyme); the outer parts of the 90-letter strands are left off. Uncut reads are compared with the no-enzyme pool on a log2 scale; strong cutting gives strongly negative numbers. There is no active / inactive call. Shares of all reads are compared; uncut strands gain when others are lost, and binding without cutting may add a little.

How the values were obtained:
Assay in all cases: uncleaved DNA left, log2 of reads against the no-enzyme library (log2 ratio); higher = less cleavage (more negative = more Rep cleavage of the k-mer); sequences stand for … in CTCGTCCG…ACCGGAGA
[1] = system: T1, Rep nickase domain of Muscovy duck circovirus
T1 sequence (protein, residues 1-111, tag omitted): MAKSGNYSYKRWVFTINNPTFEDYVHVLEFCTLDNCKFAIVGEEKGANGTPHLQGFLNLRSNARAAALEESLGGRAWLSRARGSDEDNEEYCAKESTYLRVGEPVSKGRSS
Experimental: (§1)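 A pool of 90-nt single-stranded DNAs with seven random bases just before the constant AC of the nick site (name = the seven bases) was cut by 3 µM recombinant His6-SUMO-tagged Rep nickase domain (300 nM DNA, 50 mM HEPES pH 8.0, 50 mM NaCl, 1 mM MnCl2, 1 h, 37 °C, three replicates). Uncut DNA was amplified and sequenced.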

[2] = system: T2, Rep nickase domain of banana bunchy top virus
T2 sequence (protein, residues 1-94, tag omitted): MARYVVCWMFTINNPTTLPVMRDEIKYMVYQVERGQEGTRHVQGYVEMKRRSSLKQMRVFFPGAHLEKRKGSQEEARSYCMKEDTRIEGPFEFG
Experimental: as §1

[3] = system: T3, Rep nickase domain of cabbage leaf curl virus
T3 sequence (protein, residues 1-116, tag omitted): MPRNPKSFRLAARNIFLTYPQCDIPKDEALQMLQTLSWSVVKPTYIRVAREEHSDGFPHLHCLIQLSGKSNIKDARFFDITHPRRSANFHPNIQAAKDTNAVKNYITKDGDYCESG
Experimental: as §1

[4] = system: T4, Rep nickase domain of chickpea chlorotic dwarf virus
T4 sequence (protein, residues 1-124, tag omitted): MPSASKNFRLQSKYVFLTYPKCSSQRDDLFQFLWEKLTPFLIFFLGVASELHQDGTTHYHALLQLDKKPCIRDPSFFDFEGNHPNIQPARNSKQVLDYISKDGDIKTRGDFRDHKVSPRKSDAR
Experimental: as §1

[5] = system: T5, Rep nickase domain of faba bean necrotic yellows virus
T5 sequence (protein, residues 1-98, tag omitted): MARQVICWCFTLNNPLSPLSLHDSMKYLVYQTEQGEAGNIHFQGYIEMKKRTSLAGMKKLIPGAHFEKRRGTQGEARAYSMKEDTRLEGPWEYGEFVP
Experimental: as §1

[6] = system: T6, Rep nickase domain of maize striate mosaic virus
T6 sequence (protein, residues 1-117, tag omitted): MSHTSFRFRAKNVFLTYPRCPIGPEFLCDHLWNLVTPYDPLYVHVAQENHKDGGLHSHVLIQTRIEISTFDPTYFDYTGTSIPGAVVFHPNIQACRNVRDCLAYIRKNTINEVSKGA
Experimental: as §1

[7] = system: T7, Rep nickase domain of porcine circovirus 2
T7 sequence (protein, residues 2-116, tag omitted): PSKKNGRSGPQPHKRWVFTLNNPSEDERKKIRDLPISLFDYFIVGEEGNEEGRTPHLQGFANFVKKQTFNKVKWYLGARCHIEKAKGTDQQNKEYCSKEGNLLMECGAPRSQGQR
Experimental: as §1

[8] = system: T8, Rep nickase domain of tomato golden mosaic virus
T8 sequence (protein, residues 1-124, tag omitted): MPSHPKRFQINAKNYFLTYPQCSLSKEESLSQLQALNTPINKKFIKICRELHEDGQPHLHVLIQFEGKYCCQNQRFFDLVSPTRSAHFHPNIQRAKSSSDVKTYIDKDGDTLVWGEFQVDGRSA
Experimental: as §1

[9] = system: T9, Rep nickase domain of tomato yellow leaf curl virus
T9 sequence (protein, residues 1-136, tag omitted): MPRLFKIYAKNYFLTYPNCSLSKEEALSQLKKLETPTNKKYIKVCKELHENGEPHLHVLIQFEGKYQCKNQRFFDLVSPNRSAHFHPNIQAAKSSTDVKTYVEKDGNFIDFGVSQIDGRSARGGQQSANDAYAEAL
Experimental: as §1

[10] = system: T10, Rep nickase domain of wheat dwarf virus
T10 sequence (protein, residues 1-137, tag omitted): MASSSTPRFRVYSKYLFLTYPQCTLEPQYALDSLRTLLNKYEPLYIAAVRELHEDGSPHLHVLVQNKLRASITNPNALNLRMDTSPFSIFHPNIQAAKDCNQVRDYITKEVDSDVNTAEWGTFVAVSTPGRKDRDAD
Experimental: as §1

Row | Sequence | uncleaved DNA left (log2) [1] | uncleaved DNA left (log2) [2] | uncleaved DNA left (log2) [3] | uncleaved DNA left (log2) [4] | uncleaved DNA left (log2) [5] | uncleaved DNA left (log2) [6] | uncleaved DNA left (log2) [7] | uncleaved DNA left (log2) [8] | uncleaved DNA left (log2) [9] | uncleaved DNA left (log2) [10]
1 | GCTACAC | -0.0656 | -0.0167 | 0.116 | 0.088 | -0.0316 | 0.315 | -0.0349 | 0.0244 | -0.0315 | 0.0532
2 | ACCATGT | -0.0421 | -0.0564 | -0.462 | -0.857 | 0.0231 | -1.1 | 0.116 | 0.0597 | 0.00263 | -0.158
3 | GGAGGTG | 0.135 | 0.119 | 0.0679 | 0.215 | 0.0743 | 0.187 | 0.0762 | 0.0907 | -0.00556 | 0.0215
4 | ATCTATA | -0.00313 | -0.0361 | -0.0349 | -1.7 | 0.00578 | -0.769 | -0.27 | 0.0113 | -0.0502 | -0.0658
5 | CCACTAC | -0.047 | -0.21 | -0.266 | -2.1 | -0.0491 | -0.848 | 0.0119 | -0.127 | -0.0939 | -0.0841
6 | TGTCCGG | 0.0374 | 0.129 | 0.547 | 1.35 | 0.0523 | 1.88 | 0.132 | 0.0536 | 0.0739 | 0.12
7 | AAGCCAC | -0.0134 | 0.0284 | -0.0463 | -0.558 | -0.00716 | -0.293 | -0.0169 | -0.0512 | -0.0326 | 0.036
8 | ATGCATA | -0.041 | -0.0538 | -0.371 | -1 | -0.15 | -0.769 | -0.172 | -0.00347 | -0.0136 | 0.0882
9 | AATTGAT | -3.03 | -1.54 | 0.036 | 0.736 | -0.00994 | 1 | -3.45 | 0.0654 | -0.0245 | 0.0173
10 | AACGTGC | -0.0131 | -0.00959 | -0.477 | -0.695 | -0.0289 | -1.07 | 0.0963 | 0.000816 | 0.138 | -0.0918
11 | CAACGCG | 0.0267 | 0.0648 | -0.863 | -0.318 | 0.0618 | -0.857 | 0.219 | -0.0248 | 0.0377 | -0.0422
12 | AGCAGCT | 0.00701 | 0.0898 | -0.0521 | 0.0927 | -0.04 | 0.262 | 0.00404 | -0.0356 | -0.0591 | -0.00959
13 | CGAAGAG | 0.173 | 0.134 | -0.435 | -0.312 | 0.115 | -0.876 | 0.228 | 0.0956 | 0.162 | 0.00255
14 | AAGCATG | 0.11 | 0.0723 | 0.224 | 1.02 | 0.0364 | 1.03 | 0.195 | 0.118 | -0.00337 | 0.00505
